# Test results from the supplement of paper PMC8728848.
# This is one part of the list.
# B1: Clec18C (Homo sapiens) (protein)
# chain: MLHPETSPGRGHLLAVLLALLGTAWAEVWPPQLQEQAPMAGALNRKESFLLLSLHNRLRSWVQPPAADMRRLDWSDSLAQLAQARAALCGTPTPSLASGLWRTLQVGWNMQLLPAGLVSFVEVVSLWFAEGQRYSHAAGECARNATCTHYTQLVWATSSQLGCGRHLCSAGQAAIEAFVCAYSPRGNWEVNGKTIVPYKKGAWCSLCTASVSGCFKAWDHAGGLCEVPRNPCRMSCQNHGRLNISTCHCHCPPGYTGRYCQVRCSLQCVHGRLREEECSCVCDIGYGGAQCATKVHFPFHTCDLRIDGDCFMVSSEADTYYRARMKCQRKGGVLAQIKSQKVQDILAFYLGRLETTNEVIDSDFETRNFWIGLTYKTAKDSFRWATGEHQAFTSFAFGQPDNHGFGNCVELQASAAFNWNNQRCKTRNRYICQFAQEHISRWGPGS
# Key:
# Experiment in all cases: glycan array binding signal (z-score within array); higher = stronger binding
# Settings in all cases: glycan notation: IUPAC condensed, linker removed
# [1] = target: Fuc(a1-2)Gal(b1-4)GlcNAc(b1-3)Gal(b1-4)GlcNAc(b1-3)Gal(b1-4)GlcNAc
# Method in brief: (§1)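 Columns mapping to the same glycan were averaged after glycan names were converted to IUPAC-condensed notation. The data come from 3228 arrays in the Consortium for Functional Glycomics database, limited to those with an available protein sequence. Binding is reported as a within-array Z-score averaged across arrays of one protein sequence and across linkers.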
# [2] = target: Fuc(a1-2)Gal(b1-4)GlcNAc(b1-3)GalNAc
# Method in brief: as §1
# [3] = target: Fuc(a1-2)Gal(b1-4)GlcNAc(b1-3)[Fuc(a1-2)Gal(b1-4)GlcNAc(b1-6)]GalNAc
# Method in brief: as §1
# [4] = target: Fuc(a1-2)Gal(b1-4)GlcNAc(b1-3)[Fuc(a1-3)[Gal(b1-4)]GlcNAc(b1-6)]Gal(b1-4)Glc
# Method in brief: as §1
# [5] = target: Fuc(a1-2)Gal(b1-4)GlcNAc(b1-6)GalNAc
# Method in brief: as §1
# [6] = target: Fuc(a1-2)Gal(b1-4)GlcNAc6S
# Method in brief: as §1
# [7] = target: Fuc(a1-2)Gal(b1-4)[Fuc(a1-3)]GlcNAc
# Method in brief: as §1
# [8] = target: Fuc(a1-2)Gal(b1-4)[Fuc(a1-3)]GlcNAc(b1-2)Man(a1-3)[Fuc(a1-2)Gal(b1-4)[Fuc(a1-3)]GlcNAc(b1-2)Man(a1-6)]Man(b1-4)GlcNAc(b1-4)[Fuc(a1-6)]GlcNAc
# Method in brief: as §1
# [9] = target: Fuc(a1-2)Gal(b1-4)[Fuc(a1-3)]GlcNAc(b1-2)[Fuc(a1-2)Gal(b1-4)[Fuc(a1-3)]GlcNAc(b1-4)]Man(a1-3)[Fuc(a1-2)Gal(b1-4)[Fuc(a1-3)]GlcNAc(b1-2)Man(a1-6)]Man(b1-4)GlcNAc(b1-4)GlcNAc
# Method in brief: as §1
# [10] = target: Fuc(a1-2)Gal(b1-4)[Fuc(a1-3)]GlcNAc(b1-3)Gal(b1-4)[Fuc(a1-3)]GlcNAc
# Method in brief: as §1
# [11] = target: Fuc(a1-2)Gal(b1-4)[Fuc(a1-3)]GlcNAc(b1-3)Gal(b1-4)[Fuc(a1-3)]GlcNAc(b1-3)Gal(b1-4)[Fuc(a1-3)]GlcNAc
# Method in brief: as §1
# [12] = target: Fuc(a1-2)Gal(b1-4)[Fuc(a1-3)]GlcNAc(b1-3)GalNAc
# Method in brief: as §1
# [13] = target: Fuc(a1-2)Gal(b1-4)[Fuc(a1-3)]GlcNAc(b1-3)[Neu5Ac(a2-6)Gal(b1-4)GlcNAc(b1-6)]Gal(b1-4)Glc
# Method in brief: as §1
# [14] = target: Fuc(a1-2)Gal3S(b1-4)GlcNAc
# Method in brief: as §1
# [15] = target: Fuc(a1-2)Gal6S(b1-3)GlcNAc
# Method in brief: as §1
# [16] = target: Fuc(a1-2)Gal6S(b1-3)GlcNAc6S
# Method in brief: as §1
# Fuc(a1-2)Gal6S(b1-4)Glc = target: Fuc(a1-2)Gal6S(b1-4)Glc
# Method in brief: as §1
# [17] = target: Fuc(a1-2)Gal6S(b1-4)Glc6S
# Method in brief: as §1
# Fuc(a1-2)[Gal(a1-3)]Gal = target: Fuc(a1-2)[Gal(a1-3)]Gal
# Method in brief: as §1
# [18] = target: Fuc(a1-2)[Gal(a1-3)]Gal(b1-3)GalNAc
# Method in brief: as §1
# [19] = target: Fuc(a1-2)[Gal(a1-3)]Gal(b1-3)GalNAc(b1-3)Gal(a1-4)Gal(b1-4)Glc
# Method in brief: as §1
# [20] = target: Fuc(a1-2)[Gal(a1-3)]Gal(b1-3)GlcNAc
# Method in brief: as §1
# [21] = target: Fuc(a1-2)[Gal(a1-3)]Gal(b1-3)GlcNAc(b1-2)Man(a1-3)[Fuc(a1-2)[Gal(a1-3)]Gal(b1-3)GlcNAc(b1-2)Man(a1-6)]Man(b1-4)GlcNAc(b1-4)GlcNAc
# Method in brief: as §1
# [22] = target: Fuc(a1-2)[Gal(a1-3)]Gal(b1-3)GlcNAc(b1-2)Man(a1-3)[Fuc(a1-2)[Gal(a1-3)]Gal(b1-3)GlcNAc(b1-2)Man(a1-6)]Man(b1-4)GlcNAc(b1-4)[Fuc(a1-6)]GlcNAc
# Method in brief: as §1
# [23] = target: Fuc(a1-2)[Gal(a1-3)]Gal(b1-3)GlcNAc(b1-3)GalNAc
# Method in brief: as §1
# [24] = target: Fuc(a1-2)[Gal(a1-3)]Gal(b1-3)GlcNAc(b1-6)GalNAc
# Method in brief: as §1
# [25] = target: Fuc(a1-2)[Gal(a1-3)]Gal(b1-4)Glc
# Method in brief: as §1
# [26] = target: Fuc(a1-2)[Gal(a1-3)]Gal(b1-4)GlcNAc
# Method in brief: as §1
# [27] = target: Fuc(a1-2)[Gal(a1-3)]Gal(b1-4)GlcNAc(b1-2)Man
# Method in brief: as §1
# [28] = target: Fuc(a1-2)[Gal(a1-3)]Gal(b1-4)GlcNAc(b1-2)Man(a1-3)[Fuc(a1-2)[Gal(a1-3)]Gal(b1-4)GlcNAc(b1-2)Man(a1-6)]Man(b1-4)GlcNAc(b1-4)GlcNAc
# Method in brief: as §1
# [29] = target: Fuc(a1-2)[Gal(a1-3)]Gal(b1-4)GlcNAc(b1-2)Man(a1-3)[Fuc(a1-2)[Gal(a1-3)]Gal(b1-4)GlcNAc(b1-2)Man(a1-6)]Man(b1-4)GlcNAc(b1-4)[Fuc(a1-6)]GlcNAc
# Method in brief: as §1
# [30] = target: Fuc(a1-2)[Gal(a1-3)]Gal(b1-4)GlcNAc(b1-3)GalNAc
# Method in brief: as §1
# [31] = target: Fuc(a1-2)[Gal(a1-3)]Gal(b1-4)GlcNAc(b1-3)[Fuc(a1-2)[Gal(a1-3)]Gal(b1-4)GlcNAc(b1-6)]GalNAc
# Method in brief: as §1
# [32] = target: Fuc(a1-2)[Gal(a1-3)]Gal(b1-4)GlcNAc(b1-6)GalNAc
# Method in brief: as §1
# [33] = target: Fuc(a1-2)[Gal(a1-3)]Gal(b1-4)[Fuc(a1-3)]Glc
# Method in brief: as §1
# [34] = target: Fuc(a1-2)[Gal(a1-3)]Gal(b1-4)[Fuc(a1-3)]GlcNAc
# Method in brief: as §1
# [35] = target: Fuc(a1-2)[Gal(a1-3)]Gal(b1-4)[Fuc(a1-3)]GlcNAc(b1-3)GalNAc
# Method in brief: as §1
# [36] = target: Fuc(a1-2)[Gal(a1-4)]Gal(b1-4)GlcNAc
# Method in brief: as §1
# [37] = target: Fuc(a1-2)[GalNAc(a1-3)]Gal
# Method in brief: as §1
# [38] = target: Fuc(a1-2)[GalNAc(a1-3)]Gal(b1-3)GalNAc(a1-3)[Fuc(a1-2)]Gal(b1-4)GlcNAc
# Method in brief: as §1
# [39] = target: Fuc(a1-2)[GalNAc(a1-3)]Gal(b1-3)GalNAc(b1-3)Gal(a1-4)Gal(b1-4)Glc
# Method in brief: as §1
# [40] = target: Fuc(a1-2)[GalNAc(a1-3)]Gal(b1-3)GlcNAc
# Method in brief: as §1
# [41] = target: Fuc(a1-2)[GalNAc(a1-3)]Gal(b1-3)GlcNAc(b1-2)Man(a1-3)[Fuc(a1-2)[GalNAc(a1-3)]Gal(b1-3)GlcNAc(b1-2)Man(a1-6)]Man(b1-4)GlcNAc(b1-4)GlcNAc
# Method in brief: as §1
# [42] = target: Fuc(a1-2)[GalNAc(a1-3)]Gal(b1-3)GlcNAc(b1-2)Man(a1-3)[Fuc(a1-2)[GalNAc(a1-3)]Gal(b1-3)GlcNAc(b1-2)Man(a1-6)]Man(b1-4)GlcNAc(b1-4)[Fuc(a1-6)]GlcNAc
# Method in brief: as §1
# [43] = target: Fuc(a1-2)[GalNAc(a1-3)]Gal(b1-3)GlcNAc(b1-3)GalNAc
# Method in brief: as §1
binder,measurement,setting,value
B1,glycan array binding signal (z-score),[1],0.393
same,glycan array binding signal (z-score),[2],3.79
same,glycan array binding signal (z-score),[3],-0.48
same,glycan array binding signal (z-score),[4],2.35
same,glycan array binding signal (z-score),[5],0.162
same,glycan array binding signal (z-score),[6],0.931
same,glycan array binding signal (z-score),[7],-0.492
same,glycan array binding signal (z-score),[8],-0.193
same,glycan array binding signal (z-score),[9],-0.419
same,glycan array binding signal (z-score),[10],-0.533
same,glycan array binding signal (z-score),[11],-0.579
same,glycan array binding signal (z-score),[12],0.011
same,glycan array binding signal (z-score),[13],0.205
same,glycan array binding signal (z-score),[14],1.21
same,glycan array binding signal (z-score),[15],0.717
same,glycan array binding signal (z-score),[16],-0.032
same,glycan array binding signal (z-score),Fuc(a1-2)Gal6S(b1-4)Glc,-0.452
same,glycan array binding signal (z-score),[17],-0.262
same,glycan array binding signal (z-score),Fuc(a1-2)[Gal(a1-3)]Gal,-0.382
same,glycan array binding signal (z-score),[18],-0.384
same,glycan array binding signal (z-score),[19],-0.571
same,glycan array binding signal (z-score),[20],-0.435
same,glycan array binding signal (z-score),[21],-0.479
same,glycan array binding signal (z-score),[22],-0.398
same,glycan array binding signal (z-score),[23],0.473
same,glycan array binding signal (z-score),[24],-0.329
same,glycan array binding signal (z-score),[25],-0.393
same,glycan array binding signal (z-score),[26],-0.591
same,glycan array binding signal (z-score),[27],-0.021
same,glycan array binding signal (z-score),[28],1.04
same,glycan array binding signal (z-score),[29],0.417
same,glycan array binding signal (z-score),[30],-0.517
same,glycan array binding signal (z-score),[31],-0.31
same,glycan array binding signal (z-score),[32],-0.568
same,glycan array binding signal (z-score),[33],-0.56
same,glycan array binding signal (z-score),[34],0.762
same,glycan array binding signal (z-score),[35],-0.17
same,glycan array binding signal (z-score),[36],-0.135
same,glycan array binding signal (z-score),[37],0.158
same,glycan array binding signal (z-score),[38],-0.467
same,glycan array binding signal (z-score),[39],0.597
same,glycan array binding signal (z-score),[40],-0.273
same,glycan array binding signal (z-score),[41],-0.181
same,glycan array binding signal (z-score),[42],-0.225
same,glycan array binding signal (z-score),[43],-0.186
